Measurements taken from the supplement of paper PMC11876631.
± gives the standard deviation of the averaged measurements. Laboratory Escherichia coli strains with one amino-acid change in an essential protein, pooled on minimal glucose agar with carbenicillin or gentamicin at twice the control MIC (plus kanamycin and chloramphenicol for the plasmids), 48 h. Fold change of barcode share against drug-free plates; higher = less susceptible. Active = above 20 in both replicates (the paper's putatively resistant). '<' = one read or none on drug, '>' = one read or none on a drug-free plate. Shares are relative, so most strains fall below 1 when a few take over. Listed are strains with at least 15 reads on both drug-free plates, and hits; most hits rest on fewer reference reads. Replicate rank correlation about 0.5. Edits are read from barcodes.

Target: Escherichia coli (laboratory strain)
Assay: barcode share on antibiotic plates over drug-free plates; higher = less susceptible
Method: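 A pool of E. coli strains, each edited to carry one amino-acid change in an essential protein, was grown for 48 h on minimal glucose agar with or without antibiotic; strain barcodes were sequenced; mean of two replicates.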

[1] = antibiotic: carbenicillin, 2× MIC (3.1 µg/mL)
[2] = antibiotic: gentamicin, 2× MIC (MIC 0.45 µg/mL)

B1: ispE L229Q (protein)
chain: MRTQWPSPAKLNLFLYITGQRADGYHTLQTLFQFLDYGDTISIELRDDGDIRLLTPVEGVEHEDNLIVRAARLLMKTAADSGRLPTGSGANISIDKRLPMGGGLGGGSSNAATVLVALNHLWQCGLSMDELAEMGLTLGADVPVFVRGHAAFAEGVGEILTPVDPPEKWYLVAHPGVSIPTPVIFKDPELPRNTPKRSIETLLKCEFSNDCEVIARKRFREVDAVLSWQLEYAPSRLTGTGACVFAEFDTESEARQVLEQAPEWLNGFVAKGANLSPLHRAML
Q: Which “fold change of barcode share” value [1] does the source give for B1 here?
A: Its value is 0.583 ± 0.19.

Q: And the “fold change of barcode share” value [2]?
A: The value was under 0.00472.

B2: ispE V156A (protein)
chain: MRTQWPSPAKLNLFLYITGQRADGYHTLQTLFQFLDYGDTISIELRDDGDIRLLTPVEGVEHEDNLIVRAARLLMKTAADSGRLPTGSGANISIDKRLPMGGGLGGGSSNAATVLVALNHLWQCGLSMDELAEMGLTLGADVPVFVRGHAAFAEGAGEILTPVDPPEKWYLVAHPGVSIPTPVIFKDPELPRNTPKRSIETLLKCEFSNDCEVIARKRFREVDAVLSWLLEYAPSRLTGTGACVFAEFDTESEARQVLEQAPEWLNGFVAKGANLSPLHRAML
Q: With B2 as the protein, how does the “fold change of barcode share” value [1] read?
A: The value was 2.19 ± 0.62.

Q: And the “fold change of barcode share” value [2]?
A: The value was 0.00906 ± 0.0067.

B3: ispE V156W (protein)
chain: MRTQWPSPAKLNLFLYITGQRADGYHTLQTLFQFLDYGDTISIELRDDGDIRLLTPVEGVEHEDNLIVRAARLLMKTAADSGRLPTGSGANISIDKRLPMGGGLGGGSSNAATVLVALNHLWQCGLSMDELAEMGLTLGADVPVFVRGHAAFAEGWGEILTPVDPPEKWYLVAHPGVSIPTPVIFKDPELPRNTPKRSIETLLKCEFSNDCEVIARKRFREVDAVLSWLLEYAPSRLTGTGACVFAEFDTESEARQVLEQAPEWLNGFVAKGANLSPLHRAML
Q: B3 was tested. Which “fold change of barcode share” value [1] did it give?
A: Its value is 0.234 ± 0.013.

Q: What about the “fold change of barcode share” value [2] of the same protein?
A: Its value is 1.11 ± 1.5.

B4: ispE V156Q (protein)
chain: MRTQWPSPAKLNLFLYITGQRADGYHTLQTLFQFLDYGDTISIELRDDGDIRLLTPVEGVEHEDNLIVRAARLLMKTAADSGRLPTGSGANISIDKRLPMGGGLGGGSSNAATVLVALNHLWQCGLSMDELAEMGLTLGADVPVFVRGHAAFAEGQGEILTPVDPPEKWYLVAHPGVSIPTPVIFKDPELPRNTPKRSIETLLKCEFSNDCEVIARKRFREVDAVLSWLLEYAPSRLTGTGACVFAEFDTESEARQVLEQAPEWLNGFVAKGANLSPLHRAML
Q: What does the source list for B4?
A: fold change of barcode share [1]: 0.222 ± 0.074; fold change of barcode share [2]: 0.00751 ± 0.005

B5: ispE V156P (protein)
chain: MRTQWPSPAKLNLFLYITGQRADGYHTLQTLFQFLDYGDTISIELRDDGDIRLLTPVEGVEHEDNLIVRAARLLMKTAADSGRLPTGSGANISIDKRLPMGGGLGGGSSNAATVLVALNHLWQCGLSMDELAEMGLTLGADVPVFVRGHAAFAEGPGEILTPVDPPEKWYLVAHPGVSIPTPVIFKDPELPRNTPKRSIETLLKCEFSNDCEVIARKRFREVDAVLSWLLEYAPSRLTGTGACVFAEFDTESEARQVLEQAPEWLNGFVAKGANLSPLHRAML
Q: For B5, which “fold change of barcode share” value [1] is on record?
A: The value was 0.483 ± 0.14.

B6: ispE L118A (protein)
chain: MRTQWPSPAKLNLFLYITGQRADGYHTLQTLFQFLDYGDTISIELRDDGDIRLLTPVEGVEHEDNLIVRAARLLMKTAADSGRLPTGSGANISIDKRLPMGGGLGGGSSNAATVLVAANHLWQCGLSMDELAEMGLTLGADVPVFVRGHAAFAEGVGEILTPVDPPEKWYLVAHPGVSIPTPVIFKDPELPRNTPKRSIETLLKCEFSNDCEVIARKRFREVDAVLSWLLEYAPSRLTGTGACVFAEFDTESEARQVLEQAPEWLNGFVAKGANLSPLHRAML
Q: How did the “fold change of barcode share” value [1] turn out when B6 was run?
A: Its value is 0.306 ± 0.0093.

Q: And the “fold change of barcode share” value [2]?
A: The value was 0.00724 ± 0.0017.

B7: ispE L118Q (protein)
chain: MRTQWPSPAKLNLFLYITGQRADGYHTLQTLFQFLDYGDTISIELRDDGDIRLLTPVEGVEHEDNLIVRAARLLMKTAADSGRLPTGSGANISIDKRLPMGGGLGGGSSNAATVLVAQNHLWQCGLSMDELAEMGLTLGADVPVFVRGHAAFAEGVGEILTPVDPPEKWYLVAHPGVSIPTPVIFKDPELPRNTPKRSIETLLKCEFSNDCEVIARKRFREVDAVLSWLLEYAPSRLTGTGACVFAEFDTESEARQVLEQAPEWLNGFVAKGANLSPLHRAML
Q: What does the source list for B7?
A: fold change of barcode share [1]: 0.345 ± 0.15; fold change of barcode share [2]: 17 ± 19

B8: ispF V151A (protein)
chain: MRIGHGFDVHAFGGEGPIIIGGVRIPYEKGLLAHSDGDVALHALTDALLGAAALGDIGKLFPDTDPAFKGADSRELLREAWRRIQAKGYTLGNVDVTIIAQAPKMLPHIPQMRVFIAEDLGCHMDDVNVKATTTEKLGFTGRGEGIACEAAALLIKATK
Q: Which “fold change of barcode share” value [1] does the source give for B8 here?
A: The value was 0.45 ± 0.052.

Q: And the “fold change of barcode share” value [2]?
A: The value was 0.00336 ± 0.0026.

B9: ispF L49A (protein)
chain: MRIGHGFDVHAFGGEGPIIIGGVRIPYEKGLLAHSDGDVALHALTDALAGAAALGDIGKLFPDTDPAFKGADSRELLREAWRRIQAKGYTLGNVDVTIIAQAPKMLPHIPQMRVFIAEDLGCHMDDVNVKATTTEKLGFTGRGEGIACEAVALLIKATK
Q: Which results are given for B9?
A: fold change of barcode share [1]: 0.345 ± 0.11; fold change of barcode share [2]: 0.00812 ± 0.0052

B10: ispF L49W (protein)
chain: MRIGHGFDVHAFGGEGPIIIGGVRIPYEKGLLAHSDGDVALHALTDALWGAAALGDIGKLFPDTDPAFKGADSRELLREAWRRIQAKGYTLGNVDVTIIAQAPKMLPHIPQMRVFIAEDLGCHMDDVNVKATTTEKLGFTGRGEGIACEAVALLIKATK
Q: With B10 as the protein, how does the “fold change of barcode share” value [1] read?
A: The value was 3.63 ± 4.2.

Q: What about the “fold change of barcode share” value [2] of the same protein?
A: Its value is 0.145 ± 0.18.

B11: ispF L49Q (protein)
chain: MRIGHGFDVHAFGGEGPIIIGGVRIPYEKGLLAHSDGDVALHALTDALQGAAALGDIGKLFPDTDPAFKGADSRELLREAWRRIQAKGYTLGNVDVTIIAQAPKMLPHIPQMRVFIAEDLGCHMDDVNVKATTTEKLGFTGRGEGIACEAVALLIKATK
Q: Which “fold change of barcode share” value [1] does the source give for B11 here?
A: The value was 0.387 ± 0.055.

Q: What about the “fold change of barcode share” value [2] of the same protein?
A: The value was 0.0249 ± 0.0069.

B12: ispG V121A (protein)
chain: MHNQAPIQRRKSTRIYVGNVPIGDGAPIAVQSMTNTRTTDVEATVNQIKALERVGADIVRVSVPTMDAAEAFKLIKQQVNVPLVADIHFDYRIALKVAEYGVDCLRINPGNIGNEERIRMAVDCARDKNIPIRIGVNAGSLEKDLQEKYGEPTPQALLESAMRHVDHLDRLNFDQFKVSVKASDVFLAVESYRLLAKQIDQPLHLGITEAGGARSGAVKSAIGLGLLLSEGIGDTLRVSLAADPVEEIKVGFDILKSLRIRSRGINFIACPTCSRQEFDVIGTVNALEQRLEDIITPMDVSIIGCVVNGPGEALVSTLGVTGGNKKSGLYEDGVRKDRLDNNDMIDQLEARIRAKASQLDEARRIDVQQVEK
Q: What does the source list for B12?
A: fold change of barcode share [1]: 0.323 ± 0.044; fold change of barcode share [2]: < 0.00459

B13: ispG L224A (protein)
chain: MHNQAPIQRRKSTRIYVGNVPIGDGAPIAVQSMTNTRTTDVEATVNQIKALERVGADIVRVSVPTMDAAEAFKLIKQQVNVPLVADIHFDYRIALKVAEYGVDCLRINPGNIGNEERIRMVVDCARDKNIPIRIGVNAGSLEKDLQEKYGEPTPQALLESAMRHVDHLDRLNFDQFKVSVKASDVFLAVESYRLLAKQIDQPLHLGITEAGGARSGAVKSAIGAGLLLSEGIGDTLRVSLAADPVEEIKVGFDILKSLRIRSRGINFIACPTCSRQEFDVIGTVNALEQRLEDIITPMDVSIIGCVVNGPGEALVSTLGVTGGNKKSGLYEDGVRKDRLDNNDMIDQLEARIRAKASQLDEARRIDVQQVEK
Q: How did the “fold change of barcode share” value [1] turn out when B13 was run?
A: The value was 0.478 ± 0.31.

Q: And the “fold change of barcode share” value [2]?
A: Its value is 0.00463 ± 0.00031.

B14: ispG L224Q (protein)
chain: MHNQAPIQRRKSTRIYVGNVPIGDGAPIAVQSMTNTRTTDVEATVNQIKALERVGADIVRVSVPTMDAAEAFKLIKQQVNVPLVADIHFDYRIALKVAEYGVDCLRINPGNIGNEERIRMVVDCARDKNIPIRIGVNAGSLEKDLQEKYGEPTPQALLESAMRHVDHLDRLNFDQFKVSVKASDVFLAVESYRLLAKQIDQPLHLGITEAGGARSGAVKSAIGQGLLLSEGIGDTLRVSLAADPVEEIKVGFDILKSLRIRSRGINFIACPTCSRQEFDVIGTVNALEQRLEDIITPMDVSIIGCVVNGPGEALVSTLGVTGGNKKSGLYEDGVRKDRLDNNDMIDQLEARIRAKASQLDEARRIDVQQVEK
Q: With B14 as the protein, how does the “fold change of barcode share” value [1] read?
A: The value was 0.2538 ± 0.0021.

Q: What about the “fold change of barcode share” value [2] of the same protein?
A: The value was 0.312 ± 0.06.

B15: ispG L227A (protein)
chain: MHNQAPIQRRKSTRIYVGNVPIGDGAPIAVQSMTNTRTTDVEATVNQIKALERVGADIVRVSVPTMDAAEAFKLIKQQVNVPLVADIHFDYRIALKVAEYGVDCLRINPGNIGNEERIRMVVDCARDKNIPIRIGVNAGSLEKDLQEKYGEPTPQALLESAMRHVDHLDRLNFDQFKVSVKASDVFLAVESYRLLAKQIDQPLHLGITEAGGARSGAVKSAIGLGLALSEGIGDTLRVSLAADPVEEIKVGFDILKSLRIRSRGINFIACPTCSRQEFDVIGTVNALEQRLEDIITPMDVSIIGCVVNGPGEALVSTLGVTGGNKKSGLYEDGVRKDRLDNNDMIDQLEARIRAKASQLDEARRIDVQQVEK
Q: How did the “fold change of barcode share” value [1] turn out when B15 was run?
A: The value was 0.255 ± 0.023.

Q: What about the “fold change of barcode share” value [2] of the same protein?
A: The value was 0.0249 ± 0.033.

B16: ispG L227Q (protein)
chain: MHNQAPIQRRKSTRIYVGNVPIGDGAPIAVQSMTNTRTTDVEATVNQIKALERVGADIVRVSVPTMDAAEAFKLIKQQVNVPLVADIHFDYRIALKVAEYGVDCLRINPGNIGNEERIRMVVDCARDKNIPIRIGVNAGSLEKDLQEKYGEPTPQALLESAMRHVDHLDRLNFDQFKVSVKASDVFLAVESYRLLAKQIDQPLHLGITEAGGARSGAVKSAIGLGLQLSEGIGDTLRVSLAADPVEEIKVGFDILKSLRIRSRGINFIACPTCSRQEFDVIGTVNALEQRLEDIITPMDVSIIGCVVNGPGEALVSTLGVTGGNKKSGLYEDGVRKDRLDNNDMIDQLEARIRAKASQLDEARRIDVQQVEK
Q: How did the “fold change of barcode share” value [1] turn out when B16 was run?
A: The value was 0.523 ± 0.2.

Q: And the “fold change of barcode share” value [2]?
A: The value was 0.0171 ± 0.015.
